Results reported in PubChem BioAssay AID1645887 (National Center for Advancing Translational Sciences (NCATS), 2021).
Values joined by “and” are separate entries in the source; they are usually repeats but may differ in a detail not shown here. Identical values can stand only once. Hit rate of the full screen: of about 16,000 compounds, about 40 (0.2%) were called active. Another 1% or so got no clear call; they are omitted. The call rests on the fitted dose curve; in most records, active means well fitted activation curve with a large enough effect; inconclusive means small, poorly fitted or top-dose-only effect, or another doubt; inactive means no such curve, though single readings can be large or run the other way. This is one part of the list.

What follows are molecules tested against Rap guanine nucleotide exchange factor 4 (Homo sapiens) (UniProt Q8WZA2) (assay: Validation qHTS for agonist of cAMP-regulated guanine nucleotide exchange factor 4 (EPAC2)). Settings: EPAC2 Rap1B BODIPY-GDP exchange, fluorescence; activation: stronger effect = higher value.
Chain of UniProt Q8WZA2 (Q8WZA2 whole entry, looked up): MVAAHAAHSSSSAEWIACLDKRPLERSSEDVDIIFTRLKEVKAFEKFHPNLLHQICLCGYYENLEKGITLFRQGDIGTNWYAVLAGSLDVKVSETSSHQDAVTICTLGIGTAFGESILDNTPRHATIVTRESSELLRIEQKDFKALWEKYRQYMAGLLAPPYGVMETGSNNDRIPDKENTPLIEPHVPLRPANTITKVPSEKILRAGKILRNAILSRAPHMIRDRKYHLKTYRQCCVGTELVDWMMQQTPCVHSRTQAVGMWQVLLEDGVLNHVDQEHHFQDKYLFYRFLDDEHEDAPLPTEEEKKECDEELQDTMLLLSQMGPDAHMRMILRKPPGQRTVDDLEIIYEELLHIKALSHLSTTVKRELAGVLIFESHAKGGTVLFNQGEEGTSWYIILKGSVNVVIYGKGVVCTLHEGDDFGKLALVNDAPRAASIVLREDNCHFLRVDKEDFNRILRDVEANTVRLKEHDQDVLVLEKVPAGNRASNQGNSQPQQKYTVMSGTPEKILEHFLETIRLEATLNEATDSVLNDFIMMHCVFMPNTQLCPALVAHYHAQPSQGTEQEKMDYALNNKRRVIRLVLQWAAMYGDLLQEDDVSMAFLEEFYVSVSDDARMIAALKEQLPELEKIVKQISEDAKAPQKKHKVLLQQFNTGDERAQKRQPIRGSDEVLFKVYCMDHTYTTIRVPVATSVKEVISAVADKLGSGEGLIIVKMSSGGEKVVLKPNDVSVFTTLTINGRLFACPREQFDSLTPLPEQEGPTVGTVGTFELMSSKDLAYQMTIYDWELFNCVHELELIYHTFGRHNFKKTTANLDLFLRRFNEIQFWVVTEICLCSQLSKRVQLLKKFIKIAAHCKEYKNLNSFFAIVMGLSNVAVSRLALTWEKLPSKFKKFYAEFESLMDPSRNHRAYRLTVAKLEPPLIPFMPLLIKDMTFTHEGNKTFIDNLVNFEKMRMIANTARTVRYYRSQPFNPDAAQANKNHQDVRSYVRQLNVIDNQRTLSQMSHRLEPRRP
Method in brief: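 Signal normalized against 6.5 mM cAMP as agonist control. Mix of EPAC2 (100 nM), RAP1B-BODIPY-GDP (250 nM) and GDP (50 uM) was read kinetically at 480/540 nm, every 5 min over 30 min, after 5 min room-temperature incubation with compound.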
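Further: exchange makes BODIPY-GDP fluorescence drop when released from Rap1B; series mostly up to about 150 µM.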
On the % scale 0 is the no-effect control and ±100 the full control effect.

activation, inactive:
COc1cccc(Cn2c(=O)c(-c3ccc(F)cc3)nc3cnc(N4CCOCC4)nc32)c1 1.98%
COc1ccc2[nH]cc(CCNc3ncncc3-c3ccc4c(c3)OCO4)c2c1 -13.2%
C=CCc1ccccc1OCC(O)CNC(C)C (configuration not stated) -5.01% and -9.93% and -2.71%
Oc1c(Cl)cc(Cl)cc1Sc1cc(Cl)cc(Cl)c1O -20.9% and -9.87%
CCCCOc1ccc(CC(=O)NO)cc1 -5.18% and 0.888%
CC(=O)OC(C)C[N+](C)(C)C (configuration not stated) 2.61% and -4.44% and -5.84%
CN(C)c1ccc(/C=C2\C(=O)Nc3ccccc32)cc1 4.11% and -30.5%
O=c1cc(-c2cccc(O)c2)oc2c(O)c(O)ccc12 -9.2%
CS(=O)(=O)Nc1cccc(-c2nc(-n3ccnc3)c3ccccc3n2)c1 -22.9%
O=S1(=O)[C@H]2C[C@@H]3C=C[C@@]2(CN1Cc1cccc(C(F)(F)F)c1)O3 -23%
CO[C@@H]1[C@@H](OC)[C@H](C)[C@@](O)(CC(=O)O)O[C@H]1[C@H](C)[C@H]1O[C@@]2(CC[C@@](C)([C@H]3CC[C@@](C)([C@@H]4O[C@@H]([C@H]5O[C@](C)(O)[C@H](C)C[C@@H]5C)C[C@@H]4OC4C[C@H](OC)[C@@H](OC)[C@H](C)O4)O3)O2)C[C@H](O)[C@H]1C (some centres not stated) -20.2%
COc1ccccc1N1CCN(CC2CN3C(=O)N(C)c4ccccc4C3=N2)CC1 (configuration not stated) -2.65%
CN(CC1COCCO1)C(=O)c1cnn(-c2ncc3c(n2)-c2ccccc2CCC3)c1C1CC1 (configuration not stated) -9.57%
CNc1ccc(/C=C2\C=Cc3ccccc32)cc1 -17.7%
CCCCCCCCCCCCCCCCO -11%
CO/N=C(\C(=O)N[C@@H]1C(=O)N2C(C(=O)O)=C(CSc3nc(C)c(CC(=O)O)s3)CS[C@H]12)c1csc(N)n1 -12.7%
CC(=O)Nc1cc(C(=O)N2CCc3c(Cl)cccc3C2)cc2ncn(CCc3ccccn3)c12 -4.5%
CCN1/C(=C/C(C)=O)Sc2ccc(OC)cc21 -15.5%
Cc1noc(C)c1-c1ccc2ncnc(Nc3ccccc3)c2c1 -18.7%
C[C@H]1c2cccc(O)c2C(O)=C2C(=O)[C@]3(O)C(O)=C(C(N)=O)C(=O)[C@@H](N(C)C)[C@@H]3[C@@H](O)[C@@H]21 -3.57% and -33.6%
CC(=O)Oc1ccc(/C=C/C(=O)CC2OC(Oc3cc(OC(C)=O)c4c(c3)O[C@@H](c3ccc(OC(C)=O)cc3)CC4=O)C(OC(C)=O)C(OC(C)=O)C2OC(C)=O)cc1 (some centres not stated) -7.37%
CNC(=O)[C@@H]1C[C@H](Sc2nc3ccccc3[nH]2)CN1Cc1ccccc1C(F)(F)F -3.55%
Cc1c(CC(C)(C)C(=O)O)n(Cc2ccc(Cl)cc2)c2ccc(F)cc12 -20.9%
COC(=O)C1CCCCN1Cc1ccc2c(c1)CN(Cc1cnn(-c3ccccc3)c1)CCO2 (configuration not stated) -1.9%
Cc1cnc(CNc2nc(-c3ccoc3)nc3ccccc23)cn1 2.28%
N=S(=O)(O)Cc1noc2ccccc12 -26.5%
COc1ccnc(CS(=O)c2nc3cc(OC(F)F)ccc3[nH]2)c1OC (configuration not stated) -15.3%
COc1ccc(/C=C\C(=O)Nc2ccccc2C(=O)O)cc1OC -7.79%
CC(=O)c1ccc2c(c1)N(CCCN1CCN(CCO)CC1)c1ccccc1S2 8.14%
COc1cc2oc(-c3ccccc3)cc(=O)c2cc1O -4.83%
O=C(Oc1ccccc1)N1CCC2(CC1)CCN(c1ncccn1)CC2 -27.1%
Cc1c(C(=O)NCC2CC2)sc2ncnc(NCCN3CCCCC3)c12 -16.7%
Clc1ccc2ncnc(NCc3ccc4c(c3)OCO4)c2c1 3.21%
COc1cccc(C2(CC(=O)N3CCN(c4ccccc4O)CC3)CC(=O)N(C3CCCC3)C2=O)c1 (configuration not stated) -7.37%
CS(=O)(=O)Nc1cccc(-c2nccc(Nc3ccc(F)cc3)n2)c1 -13.4%
Cc1cc(C)c2c(n1)NCCC2 -14.5%
CCCCC1CN(CCNC(=O)c2ccccn2)Cc2ccccc2O1 (configuration not stated) -0.47%
Cc1cccc(CNc2nc(-c3cccnc3)nc3ccccc23)c1 -9.76%
CCCN1CCC(=O)N([C@H](CSc2ccccc2)Cc2ccccc2)CC1 -27%
O=c1c(O)c(-c2ccccc2)oc2cc(O)cc(O)c12 -34.8%
O=C(O)c1cc(=O)c2c(OCC(O)COc3cccc4oc(C(=O)O)cc(=O)c34)cccc2o1 -0.18% and -0.933%
c1ccc(CNc2ncnc3ccc(-c4ccc5c(c4)OCO5)cc23)cc1 6.46%
CNCCC(Oc1ccccc1C)c1ccccc1 (configuration not stated) 11.5%
COCCNc1ccnc(-c2ccccc2CN(C)C)n1 -15.4%
COc1cc2c(cc1OC)C1N(CC2)C(=O)CCC12C(=O)CCCC2=O (configuration not stated) -19.2%
COc1cccc(Cn2c(=O)c(-c3cccc(F)c3)nc3cncnc32)c1 3.46%
CC(C)C[C@@H](CN=[N+]=[N-])N1CCN(C)CCC1=O -10.8%
COc1cccc(Cn2c(=O)cnc3cnc(N4CCOCC4)nc32)c1 1.34%
O=C(c1cccc(F)c1)N1CCC2(CC1)CCN(c1ccccn1)CC2 -10.1%
COCCn1c(=O)c(-c2ccc(Cl)cc2)nc2cnc(Oc3ccc(OC)cc3)nc21 -10.7%
COc1ncc2nc(C)c(=O)n(Cc3ccc(F)cc3)c2n1 -3.86%
Cc1cnc(CNc2ncnc3ccc(-c4cccc(C#N)c4)cc23)cn1 -8.78%
